# Experimental data from PubChem BioAssay AID504466 (National Center for Advancing Translational Sciences (NCATS), 2011).
# About 4,200 (1.3%) of roughly 330,000 compounds were called active. Inconclusive means that the source gave no clear call. Such entries were picked first, then a sample of the others. Calls come from the whole dose curve; as a rule, active = well fitted activation curve with a large enough effect; inconclusive = small, poorly fitted or top-dose-only effect; inactive = no such curve, though single readings can be large or run the other way. Where the call is inconclusive, the potency comes from a doubtful curve fit.
# Assay: qHTS screen for small molecules that induce genotoxicity in human embryonic kidney (HEK293T) cells expressing luciferase-tagged ELG1; note: nearly all actives have a fitted effect of over 60% in size
# Conditions: HEK293T ELG1-luciferase reporter, luminescence, 16 h; series mostly up to 46 µM
# Procedure, shortened: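 HEK293T cells expressing luciferase-tagged ELG1 were treated with compound or DMSO for 16 hr at 37°C. Luciferase activity was then read after 30 min with ONE-Glo at room temperature; rising signal flags genetic stress.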
# Potency is the fitted concentration of half-maximal effect; tags give direction and shape of the fitted curve.
row,SMILES,Potency
1,CCC1CCc2sc(C(=O)NCc3ccccn3)cc2C1 (centres undefined),"inconclusive: 18.3 µM [activator, partial curve]"
2,COc1ccc(C(=O)N2CCc3cc(OC)c(OC)cc3C2c2ccc(OC)c(OC)c2)cc1 (centres undefined),inactive
3,Cc1c([N+](=O)[O-])c(C/C=N/O)nn1C,inactive
4,C1CCc2c(nc3nnnn3c2N2CCOCC2)C1,inactive
5,O=C1CC(N2CCN(c3nc4ccccc4s3)CC2)C(=O)N1c1ccc(F)cc1 (centres undefined),inactive
6,CNc1nnc(-c2cc3ccccc3oc2=O)s1,active: 18.4 µM
7,Brc1ccc(CSc2nnc3ccccn23)cc1,"inconclusive: 16.4 µM [activator, partial curve, poor fit]"
8,O=C(C1CCC(=O)N(C2CC2)C1)N1CCN(c2cccc(Cl)c2)CC1 (centres undefined),inactive
9,O=C1/C(=C/c2cccs2)CCC/C1=C\c1cccs1,"inconclusive: 3.66 µM [activator, partial curve, poor fit]"
10,O=C(NCc1cccs1)c1cc2c(s1)-c1ccccc1OC2,"inconclusive: 18.4 µM [activator, single point]"
11,Cn1ccnc1SCC(=O)Nc1ccc2c(c1)OCO2,"inconclusive: 35.5 µM [activator, partial curve, poor fit]"
12,CCOC(=O)c1cc(=O)c2ccc(OCC(=O)Nc3ccccc3)cc2o1,inactive
13,COc1ccc(NC(=S)NC(=O)c2ccccc2)cn1,"inconclusive: 9.2 µM [activator, partial curve, poor fit]"
14,Cc1cccc(-c2nnn(CC/C(N)=N/O)n2)c1,"inconclusive: 18.4 µM [activator, partial curve]"
15,O=C(NCc1cccs1)c1cc2c(s1)CCCC2,active: 20.6 µM
16,Cc1ccc2nc(-c3ccc(NC(=O)CN4C(=O)c5ccccc5C4=O)cc3)sc2c1,active: 9.2 µM
17,COc1ccccc1NS(=O)(=O)c1cc(NC(=O)C2CCC2)ccc1N1CCCCC1,inactive
18,CCOc1ccccc1NC(=O)C(=O)N/N=C/c1cc(Br)ccc1O,"inconclusive: 18.3 µM [activator, partial curve, poor fit]"
19,COC(=O)c1c(-c2ccc(N(C)C)cc2)sc2ccc(OC)cc12,"inconclusive: 9.2 µM [activator, partial curve, poor fit]"
20,C/C(=N\NC(=O)c1ccccc1F)c1ccccn1,active: 3.66 µM
21,CCc1cccc(NC(=O)c2sc3nc4n(c(=O)c3c2C)CCC4)c1,"inconclusive: 13 µM [activator, partial curve, poor fit]"
22,CCOc1ccc(OCCn2nnc3ccccc3c2=O)cc1,active: 18.3 µM
23,CSc1nc(-c2ccc(Cl)cc2)nn1C(=O)c1ccco1,"inconclusive: 13 µM [activator, partial curve]"
24,O=C(Nc1cccnc1)c1cnc2ccccc2n1,"inconclusive: 5.8 µM [activator, single point]"
25,CC1CCCCN1C(=O)CSc1nnc(-c2ccccc2O)o1 (centres undefined),active: 5.17 µM
26,CCc1ccc(NC(=O)COc2ccc3c(c2)OCO3)cc1,"inconclusive: 25.9 µM [activator, single point]"
27,COc1ccc(/C=C/C(=O)Oc2ccc(/C=N/NC(=O)c3ccccc3)cc2)cc1OC,"inconclusive: 29.1 µM [activator, partial curve, poor fit]"

row,SMILES,Potency
1,COc1ccc(CC(=O)c2ccc(OC3OC(CO)C(O)C(O)C3O)cc2O)cc1 (centres undefined),"inconclusive: 20.6 µM [activator, partial curve, poor fit]"
2,O=C(COC(=O)c1cccc(O)c1)Nc1nnc(-c2ccccc2)o1,inactive
3,Cn1cccc1/C=C1\SC(=O)N(c2ccc(O)cc2)C1=O,"inconclusive: 16.4 µM [activator, partial curve, poor fit]"
4,NS(=O)(=O)c1ccc(Nc2ncccc2[N+](=O)[O-])cc1,"inconclusive: 23.1 µM [activator, partial curve, poor fit]"
5,Cc1ccc(NC(=O)CNc2ccccc2N2CCCC2=O)cc1S(=O)(=O)N1CCOCC1,inactive
6,Cc1ccccc1C(=O)Oc1ccc2ccc(O)cc2c1,active: 5.8 µM
7,Cc1ccc(N(Cc2ccccc2)C(=O)c2cc(S(=O)(=O)N3CCOCC3)ccc2Cl)cc1,"inconclusive: 4.11 µM [activator, partial curve, poor fit]"
8,O=c1oc2ccccc2cc1-c1csc(Nc2ccc(O)cc2)n1,"inconclusive: 8.2 µM [activator, partial curve]"
9,CCn1c(O)c(C=Nc2ccccc2)sc1=O,"inconclusive: 14.6 µM [activator, partial curve, poor fit]"
10,COc1ccc(-n2nc(C(=O)NCC(=O)N3CCN(c4ccccc4OC)CC3)c3ccccc3c2=O)c(OC)c1,"inconclusive: 20.6 µM [activator, partial curve, poor fit]"
11,CCCCNC(=O)CCn1c(=O)c2ccccc2n(Cc2ccc(Cl)cc2)c1=O,inactive
12,O=C(Nc1ccc(-c2nc3ccccc3o2)c(O)c1)c1cc(-n2cnnc2)ccc1Cl,"inconclusive: 23.1 µM [activator, single point]"
13,Cc1occc(=O)c1OCc1ccc(Cl)cc1Cl,inactive
14,CC(=O)c1c(C)[nH]c(-c2ccccc2)c1C,"inconclusive: 25.9 µM [activator, single point]"
15,COc1cc(OC)c(NS(=O)(=O)c2cc(Br)cnc2N)cc1Cl,inactive
16,C1=Nc2ccccc2CN1c1ccccc1,"inconclusive: 16.4 µM [activator, partial curve]"
17,Cc1ccc(C)c(CSc2nnc(C)c(=O)[nH]2)c1,inactive
18,Cn1cccc1C(=O)OCC(=O)Nc1ccc2c(c1)OCO2,"inconclusive: 9.2 µM [activator, partial curve]"
19,O=S(=O)(NCCSc1nnnn1-c1ccccc1)c1cccs1,"inconclusive: 25.9 µM [activator, single point]"
20,COc1ccc2c(=O)c(Oc3ccc(C(=O)O)cc3)c(C(F)(F)F)oc2c1,"inconclusive: 0.82 µM [activator, full curve, poor fit]"
21,CCOc1ccc(C(=O)Cn2cnc3ccccc3c2=O)cc1,"inconclusive: 6.31 µM [activator, single point]"
22,CCCCCC(=O)Nc1ccc(C(=O)COC(=O)c2ccccn2)cc1,inactive
23,Cc1c(C)n(CCCN(C)C)c2ncnc(Nc3ccc(F)cc3)c12,inactive
24,Cc1ccc(C)c(NC(=O)C2CCCN(S(=O)(=O)c3c(C)nn(C)c3C)C2)c1 (centres undefined),inactive
25,O=C(NCc1ccc2c(c1)OCO2)Nc1cccc(Cl)c1,"inconclusive: 18.3 µM [activator, partial curve, poor fit]"
26,O=C(Nc1ccccc1O)c1cc2cc(Br)ccc2oc1=O,"inconclusive: 1.83 µM [activator, full curve]"
27,CNS(=O)(=O)c1cccc(C(=O)NCC(C)(C)N2CCCCC2)c1,inactive

row,SMILES,Potency
1,CC(=O)NS(=O)(=O)c1ccc(NC(=O)CCC(=O)Oc2ccc(C)cc2)cc1,inactive
2,Cc1ccc(CNC(=O)NC2CCCCC2)cc1,"inconclusive: 18.4 µM [activator, partial curve]"
3,Cn1c(C(=O)N2CCN(Cc3ccc4c(c3)OCO4)CC2)cc2sccc21,inactive
4,COc1ccc(NC(=O)Cn2nnc(C(=O)NCc3ccc4c(c3)OCO4)c2N)cc1,"inconclusive: 35.5 µM [activator, single point]"
5,O=C1/C(=C/c2cccs2)SC(=S)N1c1ccccc1,inactive
6,CC(=O)Nc1ccc(C2C(=O)c3ccccc3C2=O)cc1,active: 23.1 µM
7,CCOc1ccccc1N=Nc1c(C)[nH]n(-c2ccccc2)c1=O,inactive
8,S=C(NCCc1ccccc1)NC1CCCCCC1,active: 8.2 µM
9,CSc1ccc(/C=N/NC(=O)c2sccc2C)cc1,active: 1.84 µM
10,COc1ccc(-c2nnc3n(CCc4ccccc4)c(=O)c4ccccc4n23)c(OC)c1,inactive
11,COc1ccc(-n2cnc3cc(NCc4ccccn4)ccc32)cc1,inactive
12,Cc1ccc(C2=Nc3cccnc3C(c3ccccc3)=NN2)cc1,"inconclusive: 23.1 µM [activator, single point]"
13,Cc1cc(C)nc(S/C=C/C(=O)c2ccccc2F)n1,"inconclusive: 23.1 µM [activator, partial curve, poor fit]"
14,CCN1CCCC1CNC(=O)c1ccc(N2CCOCC2)c(NS(=O)(=O)c2ccc(OC)cc2)c1 (centres undefined),"inconclusive: 0.103 µM [activator, full curve]"
15,CCc1nc(C)cn1S(=O)(=O)c1ccc(Br)cc1,inactive
16,CC1N(C(=O)N(C)C)CCN1S(=O)(=O)c1ccccc1 (centres undefined),inactive
17,Cc1nc2ccc(NC(=O)c3sccc3C)cc2s1,"inconclusive: 5.8 µM [activator, partial curve]"
18,c1ccc(-c2nnc(SCCC3OCCCO3)o2)cc1,"inconclusive: 10.3 µM [activator, partial curve]"
19,O=S(=O)(c1cc(Cl)cc(Cl)c1)N1CCCC1c1nc2ccccc2s1 (centres undefined),inactive
20,COc1ccccc1NC(=O)c1[nH]c(C)c(C(C)=O)c1C,"inconclusive: 23.1 µM [activator, partial curve, poor fit]"
21,CCOC(=O)/C(C#N)=C1\CCCN1CC(N)=S,inactive
22,COc1ccc(C2C(C)C3(O)CC(C#N)(C(=O)N3)C2(C#N)C#N)cc1 (centres undefined),inactive
23,Nc1sc2c(c1C(=O)NC1CCS(=O)(=O)C1)CCCC2 (centres undefined),inactive
24,CCN1CCC(N2CCN(c3ccc(F)cc3)CC2)CC1,inactive
25,CC(=O)Nc1ccc(S(=O)(=O)Oc2ccc(/C=C3\SC(N)=NC3=O)cc2)cc1,inactive
